viability, T/C and IC50 data for three compounds are collected here from PubChem BioAssay AID2060497 (Molecular Pharmacology Branch, DTP, NCI, 2025).

Some entries of the source have several records that differ or are many. The list is limited to them. The source may hold further records. The records of an entry repeat one measurement in other runs, samples, wells, individuals or studies. Counts like (3×) count equal records among those shown. Marks such as [2022-09] give the month of the run.

The test system of this assay is 317291-083-R-J1-PDC complex spheroids, viability. The experiment in a line: Anticancer human tumor 317291-083-R-J1-PDC patient-derived soft tissue sarcoma cell line growth inhibition [GQUAD]. The note with it: for viability, T/C: stronger effect = lower value; for IC50: compound alone. An excerpt:
DNA G-quadruplex Stabilizer Agents in Combinations in Complex Spheroids
A high-throughput screen of multi-cell type tumor spheroids was designed to identify active combinations of DNA G-quadruplex stabilizer agents and targeted small molecules. Complex spheroids include a stromal component modeled by human endothelial cells (HUVEC) and fibroblasts modeled by human mesenchymal stem cells (MSCs). The concentration ranges selected for each drug and investigational agent were based upon clinically achievable concentrations if the clinical Cmax of the agent was known.
Compounds. The drugs and investigational agents: pidnarulex (CX-5461; NSC782164), APTO-253 (NSC789042), BRACO-19 (NSC847499), peposertib (NSC802822), ceralasertib (NSC780249), elimusertib (NSC800525), camonsertib (NSC841442), AZD-1390 (NSC803789), olaparib (NSC753686), talazoparib (NSC767125), ART-558 (NSC835418), sotorasib (NSC818433), MRTX-1133 (NSC836407), SN-38 (NSC673596), topotecan (NSC609699), etoposide (NSC141540), doxorubicin (NSC123127), gemcitabine (NSC613327), 5-fluorouracil (NSC19893), paclitaxel (NSC125973), vemurafenib (NSC761431), panobinostat (NSC761190), R-306465 (JNJ-16241199; NSC773264), adavosertib (NSC754352), TP-3654 (NSC805149), carboplatin (NSC241240), KSQ-4279 (NSC840948), and staurosporine (NSC755774) were obtained from the National Cancer Institute (NCI) Developmental Therapeutics Program Chemical Repository (34). The FDA-approved anticancer drug set is available from the NCI Developmental Therapeutics Program. […] The stock solutions were prepared in dimethyl sulfoxide (DMSO, Sigma-Aldrich, St. Louis, MO, cat. D2650) at 800-fold the tested concentration and stored at -70 degrees C prior to their use. All drugs and investigational agents were tested over a range starting from a high concentration at or near the clinical Cmax and decreasing in half-log increments. If the clinical Cmax for an agent had not been determined, the highest concentration tested was 10 microM.
2.3 Cell Culture. All cells were maintained in an incubator at 37 degrees C and 5% CO2 with 95% humidity. The PDC lines were cultured according to standard operating procedures established by the NCI PDMR. All PDCs were thawed and cultured in Matrigel-coated flasks prepared with a working solution of 1X Ham's F-12 nutrient mix, without supplementation (Invitrogen, cat. 11765054), 100 U/mL penicillin-streptomycin (Invitrogen, cat. 15140122), and 2.5% Matrigel (Corning Inc., cat. 354248) for the first three passages. The 857933-349-R-J2-PDC line was cultured in 6C/Colon 1B media, which includes advanced DMEM/F-12 (Thermo Fisher Scientific, cat. 12634028), 10 mM HEPES (Thermo Fisher Scientific, cat. 15630080), 1X GlutaMAX supplement (Thermo Fisher Scientific, cat. 35050061), 0.1 mg/mL primocin (InvivoGen, cat. ant-pm-2), 10% defined fetal bovine serum, heat inactivated (HyClone Laboratories Inc., cat. SH30070.03HI), 50% L-WRN conditioned media (ATCC, cat. CRL-3276), 1.25 mM N-Acetyl-L-cysteine (Sigma-Aldrich, cat. A9165), 10 mM nicotinamide (Sigma-Aldrich, cat. N0636), 1X B-27 supplement (Thermo Fisher Scientific, cat. 17504044), 1X N-2 supplement (Thermo Fisher Scientific, cat. 17502048), 10 microM Y-27632 dihydrochloride (Tocris Bioscience, cat. 1254), and 50 ng/mL human EGF recombinant protein (Thermo Fisher Scientific, cat. PHG0311). The 485176-168-R4-J1-PDC line was cultured in Panc media, which includes all 6C/Colon 1B media components plus 100 ng/mL human FGF-10 (Thermo Fisher Scientific, cat. 100-26), 500 nM SB-431542 (Selleckchem, cat. S1067), and gastrin (Tocris, cat. 3006).
[…]
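Further: spheroids exposed to compounds for one week before readout.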
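Wherever viability, T/C is given: percent viability relative to DMSO vehicle wells taken as 100%.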

`CN(C)c1ccc(Nc2c3ccc(NC(=O)CCN4CCCC4)cc3nc3cc(NC(=O)CCN4CCCC4)ccc23)cc1`: the viability, T/C (compound alone 0.0316 µM) was 76.3, 96.9, 98.2, 109 (2×), 108, 92.4 (2×), 101, 100, 113% (2×); the viability, T/C (compound alone 0.316 µM) is given as 77, 76.3, 85.3, 90.9, 82.1, 91, 58.3, 62.9, 83.7, 49.4, 86.3, 97.4%; the viability, T/C (compound alone 1 µM) was 48.8, 24.8, 68.1, 52.8, 54.6, 46.5, 38.9, 36, 65.3, 53.5, 58.3, 59%; the viability, T/C (compound alone 3.16 µM) is listed as 31.1, 4.95, 53.6, 32.7, 40.5, 39.4, 6.2, 3.51, 34, 2.62, 33.3, 41.7%. For the same compound, the half-maximal inhibitory concentration (IC50) (as a rule, the midpoint of a concentration-inhibition curve) (run of 02/26/2024) is 599 nM and 1.18 µM, 569 nM, 3.09 µM, 1.35 µM, 1.59 µM, 1.13 µM, 542 nM, 559 nM, 1.74 µM, 1.51 µM, 1.85 µM [2024-02].
For `Cc1[nH]c2ccc(F)cc2c1-c1nc2c3cccnc3c3ncccc3c2[nH]1`, the viability, T/C runs as follows: (compound alone 0.0316 µM) 105, 92.5 (2×), 97.8, 89.9, 112 (2×), 111, 95.5, 131, 103, 107%; (compound alone 0.1 µM) 122, 105, 110 (2×), 106 (2×), 103 (2×), 99.7, 96.6, 93.5, 98.2%; (compound alone 0.316 µM) 95.8, 106 (2×), 99.8, 105 (2×), 113, 96.4, 79.4, 76.5, 73.8, 65.7%; (compound alone 1 µM) 97.1, 105 (2×), 103, 97.3, 111 (2×), 96.5, 67.5, 56.6, 58.4, 65.3%; (compound alone 3.16 µM) 96, 90.4, 93.8, 89.5, 90.3, 99.9, 80.9, 95.7, 42.8, 29.6, 31.6% (2×); (compound alone 10 µM) 87.4, 90.7, 66.3, 75.1, 90.2, 86.4, 81.8, 99.3, 52.6, 49.1, 61.8, 56.5%. Moreover, the half-inhibitory concentration (IC50) (run of 02/26/2024) was 5.6, 1.26, 2.41, 2.33 µM.
`Cc1cnc(CNC(=O)c2c(=O)c3ccc(N4CCCN(C)CC4)nc3n3c2sc2ccccc23)cn1`: the viability, T/C was 49.6, 60, 62.4, 72.8, 42, 41, 36.4, 50.5, 46.4, 38.9, 45.3, 50.8% (compound alone 0.316 µM); 16.3, 26.9, 45.4, 22.1, 24, 16.6, 13.1, 24.1, 19.6, 14.5, 23.5, 20.2% (compound alone 3.16 µM); 20.6 (2×), 15.7, 29.7, 30.5, 11.2, 0.92, 31.6, 48.6, 12.1, 0.57, 27.5% (compound alone 10 µM). Besides, under “run of 02/20/2024”, the IC50 is given as 281, 485, 625, 586, 268, 185, 197, 291, 225, 177, 271, 306 nM.
